Article PMC4336329 (PLoS ONE, 2015)
Hit rate of the full screen: of about 310,000 compounds, about 2,200 (0.71%) showed an effect of 50% or more. The effect is printed as a negative number. This is one part of the list.

Target: human ether-à-go-go-related gene (hERG) potassium channel (human, UniProt Q12809)
Assay: primary screen, population patch clamp on CHO cells stably expressing hERG

Chain of human ether-à-go-go-related gene (hERG) potassium channel (Q12809 whole entry, looked up): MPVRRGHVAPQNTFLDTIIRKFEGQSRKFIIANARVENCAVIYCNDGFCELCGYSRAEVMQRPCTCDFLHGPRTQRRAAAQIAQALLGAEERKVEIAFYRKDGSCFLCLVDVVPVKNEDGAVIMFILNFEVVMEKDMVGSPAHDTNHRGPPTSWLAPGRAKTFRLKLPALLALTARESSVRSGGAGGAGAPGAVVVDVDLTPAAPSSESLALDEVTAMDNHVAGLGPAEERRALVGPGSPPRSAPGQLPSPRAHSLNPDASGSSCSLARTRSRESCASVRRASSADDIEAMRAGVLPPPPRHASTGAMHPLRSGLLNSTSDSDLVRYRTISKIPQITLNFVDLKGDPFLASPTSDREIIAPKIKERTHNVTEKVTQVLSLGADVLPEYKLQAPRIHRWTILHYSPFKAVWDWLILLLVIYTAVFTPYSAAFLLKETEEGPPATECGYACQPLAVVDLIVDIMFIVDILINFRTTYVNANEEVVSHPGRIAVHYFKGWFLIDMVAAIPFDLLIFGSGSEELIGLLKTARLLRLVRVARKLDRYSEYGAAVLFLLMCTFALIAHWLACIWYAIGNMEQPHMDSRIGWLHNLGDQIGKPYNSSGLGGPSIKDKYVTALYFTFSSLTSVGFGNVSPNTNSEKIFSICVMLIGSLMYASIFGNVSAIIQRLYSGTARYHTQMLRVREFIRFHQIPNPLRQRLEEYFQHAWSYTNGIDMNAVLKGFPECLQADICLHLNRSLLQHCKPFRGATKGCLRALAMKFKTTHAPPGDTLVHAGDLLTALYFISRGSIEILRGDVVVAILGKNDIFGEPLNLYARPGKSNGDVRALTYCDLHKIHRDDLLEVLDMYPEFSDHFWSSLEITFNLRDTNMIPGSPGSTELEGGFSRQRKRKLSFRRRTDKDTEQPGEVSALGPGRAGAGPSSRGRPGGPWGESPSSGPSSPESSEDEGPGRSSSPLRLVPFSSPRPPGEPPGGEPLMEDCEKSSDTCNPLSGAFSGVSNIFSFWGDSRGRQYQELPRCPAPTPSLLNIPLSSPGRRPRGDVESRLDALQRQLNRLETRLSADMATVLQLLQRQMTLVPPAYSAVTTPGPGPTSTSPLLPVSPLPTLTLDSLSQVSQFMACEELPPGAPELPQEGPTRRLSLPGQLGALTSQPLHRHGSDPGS

Compound	hERG current change (%, negative = inhibition) at 1uM
Cc1ccc(-c2csc(NC(=O)c3cccc([N+](=O)[O-])c3)n2)cc1	10.3%
COC(=O)CSC(C(=O)Nc1ccc(C)c(C)c1)c1ccccc1 (stereo not shown)	-4.33%
CC(C)(C)c1nc2scc(-c3cccs3)c2c(=O)o1	10.5%
Cc1ccc(S(=O)(=O)NCCc2ccc(S(N)(=O)=O)cc2)cc1	2.39%
CC1CCN(Cc2cnc(Cl)s2)CC1	9.49%
CC(=O)Nc1ccc(NC(=O)/C=C/c2cccc(C(F)(F)F)c2)cc1	4.29%
CSc1ccccc1OCc1cc(C(=O)N(C)Cc2cc(C)[nH]n2)no1	2.21%
CC(C)NC(=O)NC(=O)COC(=O)c1cc(S(=O)(=O)N2CCCCC2)ccc1N1CCOCC1	17%
C/C(=N\Nc1cccc(Cl)c1)C1(C)N(O)C(C)(C)C(c2ccco2)=[N+]1[O-] (stereo not shown)	13.6%
CC(=O)NCc1ccc(-c2csc(N)n2)s1	9.92%
CC1CC(C)CN(CCCNC(=O)CN2C(=O)CSc3ccc(S(=O)(=O)N4CCCCC4)cc32)C1 (stereo not shown)	5.37%
O=C(Nc1nc(-c2ccc(F)c(F)c2)cs1)C1=COCCO1	6.96%
Cc1ccc(C(=O)OCC(=O)NCC2CCCO2)c(C)c1 (stereo not shown)	10.9%
Cc1ccc(NS(=O)(=O)c2cc3c(cc2C)NC(=O)CO3)cc1	-2.75%
CC(=O)Nc1ccc(S(=O)(=O)N2CCN(c3ccc([N+](=O)[O-])cc3)CC2)cc1	-6.25%
Cc1ccc(NC(=O)CN2C(=O)N/C(=C/c3ccco3)C2=O)cc1	4.2%
COc1cc(NC(=O)c2ccc3c(SCC(=O)O)c4c(nc3c2)CCCC4)cc(OC)c1OC	14.4%
COCCn1c(C)cc(C(=O)COc2nc3ccccc3nc2C)c1C	5.23%
CCCOc1ccc(-c2c(C(=O)N/N=C/c3ccncc3)nnn2-c2nonc2N)cc1	18.1%
COc1ccc(NC(=O)CSc2nc(C(C)C)nc3c2c(=O)n(C)c(=O)n3C)c(OC)c1	15.1%
Oc1c(C(c2ccccc2Cl)N2CCCC2)ccc2cccnc12 (stereo not shown)	11.9%
CS(=O)(=O)N1CCC(C(=O)Nc2ccc(Cl)cc2)CC1	10.9%
O=C1COc2ccc(S(=O)(=O)Nc3cccc(Cl)c3)cc2N1	4.44%

Compound	hERG current change (%, negative = inhibition) at 1uM
Cc1ccc(C(C)C)c(OCC(=O)N/N=C/c2ccc(S(=O)(=O)[O-])o2)c1	14.3%
Cc1cc(Cl)c(Cl)cc1S(=O)(=O)NCCCn1ccnc1	10.5%
COC(=O)C1=C(C)N(Cc2ccc3c(c2)OCO3)C(=O)C1	4.26%
Nc1nnc(-c2ccc(Cl)cc2Cl)s1	11%
COCC(O)CNc1ccccc1 (stereo not shown)	11%
CC(=O)O[C@]1(C(C)=O)CC[C@H]2[C@@H]3C=C(C)C4=CC(=O)CC[C@@H]4[C@H]3CC[C@@]21C	-12%
CC1CC(C)(C)NC(=S)N1CCC(=O)NCc1ccc(F)cc1 (stereo not shown)	4.51%
CC(/C=C/c1ccco1)=N/NC(=O)CNc1ccccc1C	-7.22%
Cc1nonc1NCn1nnc2ccccc21	10.1%
Cc1c(Br)c([N+](=O)[O-])nn1C(C)C(=O)NCc1ccco1 (stereo not shown)	12.2%
O=C(O)/C=C/C(=O)Nc1cccnc1	11.2%
CCOc1c(Cl)cc(/C=N/NC(N)=S)cc1OC	10.3%
Nc1cc(-c2ccc(Br)cc2)nc2cc(-c3ccccc3)nn12	13.6%
Oc1ccc(N=Cc2sc3ccccc3c2Cl)cc1	6.22%
CC(=O)Nc1ccc(S(C)(=O)=O)c(C)c1	8.97%
CCOc1ccccc1NC(=O)c1ccoc1C	15.3%
COc1cc2c(cc1OC)CN(CC(=O)Nc1ccc(F)cc1)CC2	17.5%
Cc1ccccc1CN1C(=O)c2ccccc2Sc2ccc(C(=O)NCCN3CCOCC3)cc21	1.33%
COc1ccc(CN(CC(=O)NCc2ccccc2)C(=O)CCC(=O)Nc2nccs2)cc1	10.1%
CC(C)C[C@H](NC(=O)NC(C)C)C(=O)O	8.86%
Cc1cc(NC(=S)NC(=O)c2ccco2)c2ccccc2n1	4.69%
CCOC(=O)NCc1ccc(S(=O)(=O)Nc2c(C)cccc2C)cc1	2.11%
CCN(C(=O)COC(=O)CNC(=O)c1ccccc1C)C1=CCCCC1	-3.57%

Compound	hERG current change (%, negative = inhibition) at 1uM
CC(C)(C)OC(=O)NCCCCc1cn(CC(=O)N2CCN(C(=O)OC(C)(C)C)CC2)nn1	22%
CCOCCOc1nc(C)cc(C)c1S(=O)(=O)c1ccccc1C	8.99%
Cc1onc(C(=O)NCc2ccccn2)c1[N+](=O)[O-]	2.22%
Cl.OC(CNC1CCCC1)COc1ccc(F)cc1 (stereo not shown)	12.9%
CC(C)CCNC(=O)C1CCCN(S(=O)(=O)c2ccc3c(c2)CC(C)N3C(=O)C2CC2)C1 (stereo not shown)	7.79%
COc1ccc(C(=O)NCc2ccc(-n3cccc3)cc2)cc1OC	8.11%
Cc1ccc(NC(=O)CSc2nnc(C)c(=O)n2N)cc1	4.1%
O=C(O)CCC(=O)N1CCN(Cc2ccc3c(c2)OCO3)CC1	12.1%
Cc1nn(CCN)c(C)c1Cl.Cl	15.4%
COC(=O)c1ccccc1N(C)S(=O)(=O)c1cc2c3c(c1)CCC(=O)N3CCC2	6.71%
Cc1cc(C(=O)CSc2nc3ccc(Cl)cc3[nH]2)c(C)n1C	-1.02%
CN(C(=O)CCCN1C(=O)c2cccc3cccc(c23)C1=O)c1ccccc1	-0.109%
Fc1ccccc1CSc1nnc2ccc(-c3ccncc3)nn12	-6.98%
Cc1cccnc1NC(=O)c1cccc(S(=O)(=O)NCc2ccccc2)c1	7.71%
CCC(Oc1ccccc1)C(=O)Nc1ccc(S(=O)(=O)N2CCOCC2)cc1 (stereo not shown)	-5.24%
Cc1ccc(-c2cc(C(=O)Nc3c(C)n(C)n(-c4ccccc4)c3=O)[nH]n2)c(O)c1	9.11%
CC(NC(=O)NNC(=O)c1ccncc1)(C(F)(F)F)C(F)(F)F	3.04%
Cc1ccc(-c2nn(C)c(=O)c3ccccc23)cc1CO	-4.77%
C=CCSc1nc2sc3c(c2c(=O)n1CC=C)CCc1ccccc1-3	9.88%
COc1ccc(C(=O)NC2CC2)cc1OC1CCN(Cc2ccccc2)CC1	-82.9%
N#C/C(=C\c1ccccc1OCc1ccc(C(=O)O)cc1)c1ccccc1	16%
COc1ccc(Nc2nc(Nc3ccc(OC)cc3)nc(-n3[nH]c(=O)c(C)c3C)n2)cc1	1.67%
COC(=O)C(CCSC)NC(=O)Cn1ncc2c(=O)oc3ccccc3c21 (stereo not shown)	12.5%

Compound	hERG current change (%, negative = inhibition) at 1uM
O=C(Nc1ccc2c(c1)OCO2)C1CC(c2ccccc2Cl)=NO1 (stereo not shown)	4.56%
O=C(NCCN1CCOCC1)c1ccc(CS(=O)c2ccccc2Cl)o1 (stereo not shown)	0.419%
O=C1C2CCCN2C(=S)N1c1ccc(Cl)cc1 (stereo not shown)	16%
Cc1ccccc1NC(=S)NCC1CCC(CNC(=S)Nc2ccccc2C)CC1 (stereo not shown)	11.7%
Fc1ccc(OCCCCCCN2CCCC2)cc1	2.64%
O=C(CCNC(=O)c1ccc(Br)cc1)NCC1COc2ccccc2O1 (stereo not shown)	2.19%
CC(C)(C)S(=O)(=O)Cc1nc(-c2ccc(Cl)c(Cl)c2)cs1	6.76%
CCOC(=O)N1CCc2c(sc(N)c2C#N)C1	5.15%
CCn1nnnc1NCc1ccc(OCc2ccc(F)cc2Cl)c(OC)c1	-1.14%
O=c1c2ccccc2n(Cc2ccc(F)cc2)c(=O)n1C1CCCC1	8.77%
COc1cccc(NC(=O)CN(C)C(=O)CSC(=S)N2CCCC2)c1	7.3%
O=C(Cc1ccc(Cl)cc1)N1CCN(c2ccccc2)CC1	6.04%
CCCn1c(O)c(N=NC(=O)CNC(=O)Cc2ccc(OC)cc2)c2ccccc21	11.7%
CCOC(=O)c1cc(-c2ccc3c(c2)OCCO3)nc2c1c(C)nn2CCC#N	11.3%
CCOc1ccc(-c2cc(C(=O)NN3CCN(C)CC3)c3cc(Cl)ccc3n2)cc1	14.5%
O=C(Cn1cnc2ccccc2c1=O)NCC1COc2ccccc2O1 (stereo not shown)	8.63%
CC(=O)c1ccc(Nc2cc(C)nc3c(C)cc(C)cc23)cc1	-9.86%
O=c1c2c(nc3cc(-c4ccc(Br)cc4)[nH]n13)CCCC2	6.16%
CC1=C(C(=O)OC(C)C)C(c2cccc([N+](=O)[O-])c2)n2c(cc(=O)[nH]c2=S)N1 (stereo not shown)	10.2%
CC(C)n1cc(/C=C2/SC(=O)N(CC(=O)N3CCCC3)C2=O)c2ccccc21	11.2%
Cc1cccn2cc(CCNS(=O)(=O)c3ccc([N+](=O)[O-])cc3)nc12	-2.22%
CCOC(=O)c1c(N2C(=O)C3C4C=CC(C4)C3C2=O)sc2c1CCC(C)C2 (stereo not shown)	11.9%
